Where a name gives a salt, the structure may show the parent alone. Some of the results follow. Rule as the data show it: active = 0.5 or less and inactive = the rest. Single values are uncertain, as repeats are few or missing.
These compounds were tested on HeLa VPS33A R498W KI + HA-SDC1-FLAG (assay: relative GAG core protein HA-SDC1 amount per cell number vs DMSO (fraction of DMSO); HeLa model of a glycosaminoglycan (GAG) storage disease; KI is knock-in and KO knock-out; SDC1 is syndecan 1; higher = more SDC1 (GAG core protein)). Conditions: 50 µM; 24 h.
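Also: HA-SDC1 level read out by In-Cell Western staining with an anti-HA antibody against the N-terminal tag, screening FDA-approved library drugs.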

SMILES | relative GAG core protein HA-SDC1 amount per cell number
Nc1nc2c(ncn2COC(CO)CO)c(=O)[nH]1 [Ganciclovir] | inactive: 1.03
Clc1cccc(Cl)c1NC1=NCCN1 [Clonidine HCl] | inactive: 0.788
Cc1ccc(O)c([C@H](CCN(C(C)C)C(C)C)c2ccccc2)c1 [Tolterodine tartrate] | active: 0.446
CNC(=O)c1ccccc1Sc1ccc2c(/C=C/c3ccccn3)n[nH]c2c1 | inactive: 1.48
C=C1[C@H](CO)[C@@H](O)C[C@@H]1n1cnc2c(=O)[nH]c(N)nc21 [Entecavir Hydrate] | inactive: 0.981
O=c1sn(-c2cccc3ccccc23)c(=O)n1Cc1ccccc1 [Tideglusib] | inactive: 1.26
NC[C@H]1O[C@H](O[C@H]2[C@H](O)[C@@H](O[C@H]3O[C@H](CO)[C@@H](O)[C@H](N)[C@H]3O)[C@H](N)C[C@@H]2N)[C@H](N)C[C@@H]1O [Tobramycin] | inactive: 0.765
Cc1cccn2c(=O)c(-c3nnn[nH]3)cnc12 [Pemirolast potassium] | inactive: 1.77
COc1cc(C(=O)NS(=O)(=O)c2ccccc2C)ccc1Cc1cn(C)c2ccc(NC(=O)OC3CCCC3)cc12 [Zafirlukast] | active: 0.315
O=C(O)c1cc(=O)c2ccccc2o1 [Chromocarb] | inactive: 1
CC[C@H]1OC(=O)C[C@@H](O)[C@H](C)[C@@H](O[C@@H]2O[C@H](C)[C@@H](O)[C@H](N(C)C)[C@H]2O)[C@@H](CCN2C[C@H](C)C[C@H](C)C2)C[C@@H](C)C(=O)/C=C/C(C)=C/[C@@H]1CO[C@@H]1O[C@H](C)[C@@H](O)[C@@H](OC)[C@H]1OC [Tilmicosin] | inactive: 0.9
CCCc1ncc(C[n+]2ccccc2C)c(N)n1 [Amprolium HCl] | inactive: 1.61
CCCN1CCCC[C@H]1C(=O)Nc1c(C)cccc1C [Ropivacaine HCl] | inactive: 0.811
CCCN[C@H]1CCc2nc(N)sc2C1 [Pramipexole dihydrochloride] | inactive: 1.32
CCn1cc(C(=O)O)c(=O)c2cc(F)c(N3CCNC(C)C3)c(F)c21 (stereo not given) [Lomefloxacin HCl] | inactive: 1.06
Cc1ncc([N+](=O)[O-])n1CC(O)CCl (stereo not given) [Ornidazole] | inactive: 0.774
O=C(CCCCCCNC(=O)c1cnc(N(c2ccccc2)c2ccccc2)nc1)NO [Rocilinostat (ACY-1215)] | inactive: 0.765
CNCCc1ccccn1 [Betahistine 2HCl] | inactive: 1.31
O=C(NS(=O)(=O)c1ccc(Br)s1)c1ccc(Cl)cc1Cl [Tasisulam] | inactive: 0.944
C[N+](C)(C)CCOP(=O)([O-])OC[C@H](O)CO [sn-Glycero-3-phosphocholine] | inactive: 1.46

SMILES | relative GAG core protein HA-SDC1 amount per cell number
O=C(O[C@@H]1Cc2c(O)cc(O)cc2O[C@@H]1c1ccc(O)c(O)c1)c1cc(O)c(O)c(O)c1 [(-)-epicatechin gallate] | inactive: 1.09
O=S(=O)(O)Oc1ccc(C(c2ccc(OS(=O)(=O)O)cc2)c2ccccn2)cc1 [Sodium Picosulfate] | inactive: 0.902
CC[C@H]1OC(=O)[C@H](C)[C@@H](O[C@H]2C[C@@](C)(OC)[C@@H](O)[C@H](C)O2)[C@H](C)[C@@H](O[C@@H]2O[C@H](C)C[C@H](N(C)C)[C@H]2O)[C@](C)(O)C[C@@H](C)CN(C)[C@H](C)[C@@H](O)[C@]1(C)O [Azithromycin Dihydrate] | inactive: 1.2
CC(C)[C@H](N)C(=O)OCC(CO)OCn1cnc2c(=O)[nH]c(N)nc21 (stereo not given in full) [Valganciclovir HCl] | inactive: 0.926
O=C(O)[C@H]1OC(O)[C@H](O)[C@@H](O)[C@@H]1O (mixture of isomers) [glucuronate] | inactive: 0.845
Cc1cc(/C=C/C#N)cc(C)c1Nc1ccnc(Nc2ccc(C#N)cc2)n1 [Rilpivirine] | inactive: 1.01
O=C(O)CC(O)(CC(=O)O)C(=O)O [Citric acid] | inactive: 1.01
Nc1c2c(nc3ccccc13)CCCC2 [Tacrine hydrochloride] | active: 0.48
NC(=O)[C@@H]1CC[C@@H]2CN1C(=O)N2OS(=O)(=O)O [Avibactam sodium] | inactive: 0.865
C[C@@H]1O[C@@H](OC[C@H]2O[C@@H](Oc3c(-c4ccc(O)c(O)c4)oc4cc(O)cc(O)c4c3=O)[C@H](O)[C@@H](O)[C@@H]2O)[C@H](O)[C@H](O)[C@H]1O [Rutin] | inactive: 0.96
O=c1ccc2ccccc2o1 [Coumarin] | inactive: 0.994
CC(C(=O)O)c1ccc(-c2ccccc2)c(F)c1 (stereo not given) [Flurbiprofen] | inactive: 1.11
O=C(O)[C@H]1O[C@@H](Oc2cc3oc(-c4ccc(O)cc4)cc(=O)c3c(O)c2O)[C@H](O)[C@@H](O)[C@@H]1O [Scutellarin] | inactive: 1.07
O=c1n(CCCN2CCN(c3cccc(Cl)c3)CC2)nc2ccccn12 [Trazodone HCl] | inactive: 0.828
COc1c2ccoc2cc2oc(=O)ccc12 [5-Methoxypsoralen] | inactive: 0.773
O=C(O)[C@H](O)c1ccccc1 [R-(-)-Mandelic Acid] | inactive: 0.797
COc1ccc([C@H]2CNC(=O)C2)cc1OC1CCCC1 [S- (+)-Rolipram] | inactive: 0.916
NS(=O)(=O)c1cc2c(cc1Cl)N=CNS2(=O)=O [Chlorothiazide] | inactive: 1.51
CC(=O)Oc1cc(C(F)(F)F)ccc1C(=O)O [Triflusal] | inactive: 0.937
O=C(O)CCCC[C@@H]1SC[C@@H]2NC(=O)N[C@@H]21 [Biotin] | inactive: 0.93
